Drawing on the supplement of paper PMC10126150, this text covers switch fluorescence ratio for 78 sequences.

Values marked as one replicate rest on one cluster of the flow cell; about a third of the high ones do not repeat.
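Note: ATP exposure 15 min at 22 °C before imaging.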

For the series, the system named is ATP. Kind of series: switch fluorescence ratio, 500 uM ATP over buffer (Cy3 cluster intensity, sum of 5 cycles each) (fold (ratio)); higher = stronger signal-on switching upon ATP binding; sequences stand for … in TCGTCGGCAGCGTCAGATGTGTATAAGAGACAGTTTTTTTTTTTTTTTTTTTTTTTTT…TC. Conditions: aptamer strand: ATP DNA aptamer (quencher-CACCTGGGGGAGTATTGCGGAGGAAGG + anchor), 100 nM annealed; ATP concentration: 500 uM; one replicate. Put shortly: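 Between each of five buffer/ATP cycles, the flow-cell was stripped with NaOH and re-annealed. Each cycle imaged Cy3-labelled switching-strand clusters, annealed to 100 nM quencher-labelled ATP aptamer on a modified Illumina MiSeq flow-cell, first in selection buffer and then after 15 min with 500 uM ATP at 22 °C. The fluorescence ratio is summed target-cycle over summed buffer-cycle Cy3 intensity per cluster, averaged per switch-domain sequence, with clusters outside 100-1000 RFU excluded.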
Take TCGATACTA: the switch fluorescence ratio came to 1.01.
The same measure for TTAAGTAGC: 1.02; for TGCCTTGCGA: 1.05; for ATGTTTTCCA: 0.978.
For TAGCCCAAAA, the switch fluorescence ratio is 0.997.
For the sequence TGGGACATC, the switch fluorescence ratio amounted to 0.984.
The same measure for CGGACGGGGC: 1.34; for TGTTGAGGGC: 0.955.
As for ACTGTTGCAT, the switch fluorescence ratio worked out at 1.01.
The same measure for CGTGCAGTTG: 1.03.
The same measure for CCGGGCCGTG: 1.02; for TTGGAGACCG: 1.04.
Take GATCGGATGG: the switch fluorescence ratio was 0.996.
In the case of CACATGGTCT, the switch fluorescence ratio is 1.
Consider TGATTATGCA, for which the switch fluorescence ratio is 0.971.
The same measure for GTGTCTGGAC: 0.999; for GTTCATGAGA: 1.05; for TTAGTTGTTC: 0.968.
In the case of ACGTGCAGCT, the switch fluorescence ratio was 0.992.
Take TCATTCGCGT: the switch fluorescence ratio is 1.27.
Turning to GTCAGGAGTG, the switch fluorescence ratio amounted to 0.96.
The same measure for AGTATTACTC: 1.11; for CCCTAATGGG: 0.979.
The same measure for CAGGCTAGA: 1.04; for TGGCGACTGA: 0.945.
With ATGACCACGC, the switch fluorescence ratio is 1.03.
The same measure for TGGAAGTCCC: 1.01.
The same measure for ACCGTAATC: 3.6; for AAATATATCC: 1.02.
As for GATATAAACT, the switch fluorescence ratio is 0.985.
The same measure for TCGCTCTTAC: 3.14.
The same measure for CGCTCCCTTC: 1.34.
Consider GTTTCACATA, for which the switch fluorescence ratio worked out at 0.98.
For CATTGTTCAA, the switch fluorescence ratio was found to be 1.01.
The same measure for TGAGTTTGTA: 0.935; for TACAGCTTCG: 0.983; for CACTCAGAAG: 0.995.
As to AATCTAATTC, the switch fluorescence ratio was determined as 0.975.
Consider CATAGCATCG, for which the switch fluorescence ratio stood at 1.18.
TATAACTGAT: the switch fluorescence ratio was 1.05.
The same measure for CTGTGCGGCG: 1.01.
With AGCAGGATTC, the switch fluorescence ratio was determined as 1.19.
The same measure for TCTGACTTTG: 0.972.
As to ATGAGTGGCG, the switch fluorescence ratio was found to be 0.988.
The same measure for TTGCTTGGAC: 1.07; for ATAAGGCGGA: 1.02; for TAGAGACGT: 1.02.
The same measure for TGCCGTGACA: 0.988.
The same measure for AGTTAACTGG: 1.05.
AAATACAGTG: the switch fluorescence ratio turned out to be 1.03.
The same measure for CTCCTTACAT: 1.07; for GCGCGAGTCT: 1.01; for GGATCAAGA: 0.984.
The same measure for CGGGACTGGT: 0.976; for TTGCGCCCGA: 1.01.
With AGTGGACGG, the switch fluorescence ratio is 0.965.
In the case of TAACGACGCA, the switch fluorescence ratio was 3.97.
CGACAAGTGG: the switch fluorescence ratio worked out at 0.944.
Consider CAACCGGATT, for which the switch fluorescence ratio turned out to be 1.15.
Take TTTATGTTAA: the switch fluorescence ratio amounted to 1.02.
Take TAGGACCATT: the switch fluorescence ratio is 1.08.
The same measure for AATGCTTGTG: 1.03.
The same measure for CACTACGCCA: 2.61; for CGTGTTTAAG: 1.04; for GTAAATTTGG: 1.
Take ATATCTATAA: the switch fluorescence ratio was determined as 0.978.
The same measure for TGACCCAAAG: 1.09; for AGTCGACAGA: 1.06; for GGAGTGTCGG: 1.01.
The same measure for AATCTGGA: 0.983.
The same measure for TCGGTAGCTG: 1.11; for ATTGACCAAT: 1.06; for TTTTAGACGC: 0.998.
For the sequence TAACAGGGAC, the switch fluorescence ratio was determined as 1.01.
The same measure for TGAGGGGTG: 1.02; for CCATCCCGGA: 0.988; for GGGCGATATT: 1.01.
The same measure for GATTATCACA: 1.
